In all, about 33,000 sequences were measured (“E-score (-0.5 to 0.5)”: median about -0.04, highest 2% from about 0.36 on). This is one part of the list.
Target: T1, Hmlalpha2 (UniProt P0CY09)
T1 sequence: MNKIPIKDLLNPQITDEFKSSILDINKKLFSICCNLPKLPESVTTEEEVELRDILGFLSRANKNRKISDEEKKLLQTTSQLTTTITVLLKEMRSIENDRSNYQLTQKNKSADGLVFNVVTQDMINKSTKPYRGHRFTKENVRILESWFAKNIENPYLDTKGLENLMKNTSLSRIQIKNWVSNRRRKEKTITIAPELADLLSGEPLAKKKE
Test: PBM E-score (8-mer binding enrichment) (E-score (-0.5 to 0.5)); higher = stronger / more preferred TF binding; most listed sequences are background and not binding sites
Settings: protein concentration: 200 nM; construct: GST-full length
Procedure, shortened: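 GST-tagged yeast TFs (full-length or DNA-binding domain) were made by PURExpress in vitro transcription/translation and applied at about 100-200 nM to universal all-10-mer Agilent arrays. The arrays were made double-stranded by primer extension, on fresh or once-stripped slides. Bound protein was detected with fluorescent anti-GST, and scans were normalised with masliner. Each ungapped eight-base word, pooled with its reverse complement, received an E-score (modified Wilcoxon-Mann-Whitney statistic) from the Universal PBM Analysis Suite.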

| Sequence | PBM E-score |
| --- | --- |
| AACAAAAG | 0.193 |
| GAGCTAGA | -0.134 |
| CCTATTGA | -0.0297 |
| AGACCTAT | 0.00931 |
| AAGGCCAA | -0.243 |
| AACATCAT | 0.202 |
| AAGCCCAT | -0.143 |
| GCTCACCC | -0.233 |
| CTGCCTTC | -0.295 |
| CGCGAAAG | -0.0485 |
| CGGGTCAG | -0.118 |
| GATGAGAC | -0.181 |
| CTTACTAA | 0.149 |
| GACGGAGA | -0.157 |
| ACTAACCC | 0.0236 |
| AGTCATCG | -0.0877 |
| ATTGCCCA | -0.0733 |
| CTGAGAAG | -0.316 |
| TGACGCCA | -0.118 |
| CGCCTATA | -0.138 |
| GAGCCGAC | -0.24 |
| CATATGGA | -0.0107 |
| GCCTTAGA | -0.211 |
| CCTACACC | -0.00672 |
| AAATTAAT | 0.26 |

| Sequence | PBM E-score |
| --- | --- |
| TGTACAAA | 0.422 |
| AGCTCTGC | -0.239 |
| AATGTAGA | 0.301 |
| AGCTTGCG | -0.0242 |
| CTGTATAA | 0.209 |
| AGAGTTAG | -0.0912 |
| ATTCATAG | 0.132 |
| GCTTGTAC | 0.243 |
| ACCGAACA | 0.117 |
| CCGGAGCA | -0.239 |
| CAATTGGC | -0.0418 |
| TCCATTAA | 0.148 |
| GCGCCAGA | -0.138 |
| AAAGTGCG | -0.05 |
| TTAGCAAA | 0.135 |
| GTATCCAC | -0.117 |
| GACATAGA | 0.145 |
| CGTATGCC | -0.209 |
| CTCAAAAG | -0.0353 |
| TACCGCCA | 0.0215 |
| AACCTGTC | -0.0259 |
| CTGATGAA | -0.0425 |
| TGTAATAA | 0.45 |
| CGCGTTCC | 0.061 |
| ATTCGACC | -0.291 |

| Sequence | PBM E-score |
| --- | --- |
| GAGTGAGA | -0.0922 |
| AGTTGGGA | -0.0684 |
| ATAGCCAT | 0.0224 |
| ACGACACA | 0.248 |
| CTACCAGA | -0.187 |
| ATAGCTCG | 0.0298 |
| CGCAGCCA | -0.223 |
| TCACAAGA | -0.0359 |
| ATGCGTAC | 0.273 |
| GTTTGCGA | 0.191 |
| CGCCGAAC | -0.196 |
| ATAACCGA | -0.105 |
| CAAGGTGA | -0.0711 |
| ATATGTCA | 0.153 |
| GCAGTGCC | -0.137 |
| GGTCACGA | -0.0522 |
| CGGCAGAA | -0.197 |
| TGGAACCA | -0.0352 |
| CAAGTAAG | 0.0378 |
| GCATCTGA | -0.251 |
| CAGCGAGG | -0.256 |
| AAACGATT | -0.0352 |
| CCATTTGC | -0.125 |
| ACGAACCA | 0.219 |
| AGATTCCT | -0.188 |

| Sequence | PBM E-score |
| --- | --- |
| GCCTATAC | -0.198 |
| GAGTAGAC | -0.0398 |
| CCAAACAG | -0.0514 |
| CAAAGCTC | -0.162 |
| AGTGACAT | 0.243 |
| GCCAGGAA | -0.0164 |
| GAGCGCTA | -0.0987 |
| AACACGTA | 0.41 |
| GACCGTCC | -0.302 |
| AACGTAGG | -0.0759 |
| GTTATCCA | 0.0731 |
| CCATAGAC | -0.203 |
| AATTCATA | 0.0101 |
| CCAGTTAA | 0.229 |
| ACTCTGCC | -0.095 |
| CTGTTTAC | 0.371 |
| CTCCTAAC | 0.0477 |
| ACCGAGAA | -0.178 |
| ACGCACTG | 0.0609 |
| AAAAGACA | 0.118 |
| CCACGCGG | -0.203 |
| CCCATTAA | 0.207 |
| GAGTGGGA | -0.189 |
| ACAGCAGG | 0.0218 |
| CATGGAAA | 0.229 |

| Sequence | PBM E-score |
| --- | --- |
| AATCATCA | -0.0656 |
| ATGACGGA | 0.00302 |
| GCTATTTA | 0.146 |
| GAAGCATA | -0.0521 |
| CTCGCAGC | -0.237 |
| CGACATAA | 0.273 |
| AGCTATAC | 0.104 |
| ACCGATGG | -0.143 |
| GAAGTTGC | -0.116 |
| ACGTGTTG | 0.415 |
| CGTCCCAG | -0.228 |
| GTAGGCCA | -0.034 |
| AGATGCTC | -0.0672 |
| CAGTGGCG | -0.21 |
| AATGTCCT | 0.00569 |
| ATGGCTCA | -0.19 |
| CACGATCA | 0.252 |
| CGCATGCC | -0.0671 |
| ACCTGCGG | -0.228 |
| AGGTACTC | 0.0834 |
| AGCTGAAA | 0.0678 |
| AACCTGAC | -0.00028 |
| AGGACTCA | -0.0708 |
| AGACCTCA | -0.0103 |
| ACCTTAGT | 0.00079 |

| Sequence | PBM E-score |
| --- | --- |
| CCCAACGA | -0.0584 |
| GACGACTC | -0.279 |
| TAAGCAGA | 0.00375 |
| CCAACGCA | 0.149 |
| ACTCGTGC | -0.202 |
| GAAGTTTA | 0.137 |
| AGTCGGCG | -0.0609 |
| GAGGGATC | -0.209 |
| CCCAGGGC | -0.289 |
| GGTCAAAA | 0.055 |
| CATGGCTC | 0.115 |
| CATGTGAA | 0.318 |
| CCAATGTC | -0.0124 |
| ACCGGACC | -0.169 |
| AACAGGAT | -0.00697 |
| AAAAGGAA | -0.011 |
| CTTTGGCA | -0.283 |
| GGGCCAAC | -0.0699 |
| GGAATGTA | 0.18 |
| GACTCTGC | -0.314 |
| CTACCTAA | 0.0141 |
| AGCTGGAC | -0.0393 |
| AAAACTAC | 0.202 |
| ACCGACCT | -0.141 |
| CCCTAGTA | 0.0374 |

| Sequence | PBM E-score |
| --- | --- |
| CTCCACGC | -0.249 |
| GCGTCCCC | -0.358 |
| CATGGTGA | 0.0496 |
| CGCTCGAG | -0.123 |
| AGGGTGGC | -0.316 |
| ACTCGCCT | -0.121 |
| CTACTCCA | -0.142 |
| GACTGAGA | -0.102 |
| GCTACTTA | 0.0271 |
| ACTAACGG | -0.168 |
| ATGGCGTA | 0.0186 |
| GATAACAA | 0.324 |
| GAAGACTA | -0.048 |
| GATGGCCC | -0.256 |
| AAGCCAGA | -0.0598 |
| AACCTAAT | -0.0243 |
| ATTCCGCG | -0.0728 |
| ACTACCGA | -0.12 |
| CTGCCTGA | 0.0519 |
| AATATGAA | -0.00341 |
| CAGCTCGG | -0.148 |
| GTATCGGA | -0.075 |

Reference: the supplement of paper PMC3334620
